Results published in the supplement of paper PMC11417369.
This is one part of the list.

test system: PfSIP2 AP2 domain 1 (GST-tagged); assay: gcPBM binding intensity (ln(normalized median fluorescence intensity)); higher = stronger DNA binding
Procedure, shortened: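 GST-tagged P. falciparum DNA-binding domains, expressed in E. coli (about 25 μg on average), were applied for 1 h to an Agilent 4 × 180k array of primer-extended double-stranded 36-bp intergenic genomic probes plus negative controls. The binding buffer was 1× PBS with 1% milk, 0.2 mg/ml BSA, 0.5% salmon testes DNA and 0.03% Triton X-100. Bound protein was detected with Alexa488 anti-GST antibody and scanned at 488 nm. Binding intensity is the highest Masliner-normalised natural-log median intensity across replicate spots of either probe orientation.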

Point of comparison: “ATTTAATTCTTTTGTTATAAAATTTTAGTATATATA [CACACA_negctrl_site1649]”, “gcPBM binding intensity (ln)” value 7.06. Against it:
- TAGGCCTTAAATCGTGTGCACTTTTTTTTTTTTTTT — higher, 10.7
- CAAATTATTATTTAAGCACACATGTTTATTTTTTTT [CACACA_site2672] — lower, 6.68
- TTTTTTTTTTTTTTTTTTGGTGAGAGAAGAAAATTC [CACACA_negctrl_site950] — lower, 7.02
- AAGCATACATCAAGCACACACACACCCACACCCACA [CACACA_site372] — lower, 6.98
- AAATATATCAATATATATATATATATATATATATAT [XGTACX_negctrl_site544] — higher, 9.51
- TATGGTAAATACAACACACACACATATGTATTTATA [CACACA_site4666] — lower, 7.05
- ATTTATTTATATAATACACACAAATATCTTAATTAA [CACACA_site3993] — lower, 6.87
- TGGATATAAAACAACGTGCACTTGGTTGATTTTAAA [GTGCAC_site9900] — higher, 9.82
- TGTGCAAGATTTTTCTGTACATATATATAAATATAT [XGTACX_site1796] — higher, 8.38
- AAATATTCTTGTTTAATACACACTGTAGTATTATAT [CACACA_site433] — lower, 7
- GAATAAGATAGATATACACACCATTATAAATATAAA [CACACA_site5392] — lower, 6.85
- TTTTGTACTTCATGCGTGCACAGAAATATATTATAT — higher, 9.49
- GCTAAAAGTATATGCACACACATATATATGCACATA [CACACA_site1635] — higher, 9.05
- TAAATACTAATATGTACACACATATAGATATAGATT [CACACA_site7247] — lower, 6.86
- TTAAATAGATAAACTAAACACACAAAAAAAAAAAAA [CACACA_site8308] — lower, 6.89
- ATTTATATTTGTATTTGTACTTATATTTATATTTAT [XGTACX_site1540] — lower, 6.98
- GCTTTTGTCATGTGCACACACGTATATATTATATAT [CACACA_site6146] — higher, 9.87
- AAAAAGGTTAAGGTAGTGCATAATAAAGAATATTAA — higher, 9.2
- CTATTATAATATTTTACACACCATGTAAAATATATA [CACACA_site3206] — higher, 7.09
- ATCATTCTTCATTTGTCACACATGATAAAAATATAT [CACACA_site4953] — higher, 7.19
- CTATTTTGGATGTGTACACATATATATATTTATATT [CACACA_site5706] — higher, 7.52
- TTTTTTAAGTAATGAAATGATTTTCTTATAGAATAA [GTGCAC_negctrl_site395] — lower, 6.8
- CATTAACATTTTATTACACACAATAATTTATAAGTA [CACACA_site4083] — the same, 7.06
- TTTATATATCAATACATTATGTATTAAGTCTTACAT [TGCATGCA_negctrl_site499] — lower, 6.86
- CAAAAAAAATTATACACACACACACCGATATATATA [CACACA_site4719] — higher, 7.48
- TTTTAATTAAAAAAATATATAATAAAATTAAATTAT [CACACA_negctrl_site95] — lower, 6.84
- GGTATATAAAAATATTGTACGAAAATATGCATATAA [XGTACX_site2501] — higher, 7.17
- TTTTAAAAAAAACAAAAACATTGTCATATGGAAAAT [CACACA_negctrl_site297] — lower, 6.85
- GTATGTTAATTTAATTGTACAAAAAGATACACTGAT [XGTACX_site5710] — higher, 7.28
- AAATATAAAAAATATACACACATATAAAATCTATAT [CACACA_site7406] — lower, 6.9
- AGGAACAATATATTTGCACACAAAAAATATATATTT [CACACA_site3316] — lower, 7.05
- ATGTTAATCATTAAAAATAAAGTTTAATATAAGAAT [XGTACX_negctrl_site155] — lower, 6.96
- CAAAACAAGCAAAAATGTACTTGATAAATATTTTCT [XGTACX_site1776] — lower, 6.82
- AACATACCCATATACACACACACATAAATACAGATA [CACACA_site4744] — higher, 7.3
- ATAATAAATGATAGCACACATATGTACATATATACA [CACACA_site864] — higher, 7.1
- AATACCGGAAAGCAAACACACATTTTAAAACCATAA [CACACA_site3862] — lower, 6.97
- AAATAAAATAAAAGCACACAAAATGTAAATAATTAT [CACACA_site2775] — lower, 6.98
- GTATGTAATATTTTAGTGCAAAAAAAAAAAAAAAAA [GTGCAC_site9790] — higher, 8.3
- AAAGAAATAAAAAAAAGTACACAATTATAAATATAT [XGTACX_site3428] — the same, 7.06
- CGCGAACATACATACACACACATATTTATATAGGTA [CACACA_site6241] — lower, 6.87
- AAAATACTTTGAATTTGTACATATAGACATAATATT [XGTACX_site6181] — lower, 6.89
- TATATATATATAATTTGTACATATATATGTAACAAT [XGTACX_site8728] — higher, 9
- TTCTGCTACCACTTGAATGTCAATGAAATTAAAAAA [CACACA_negctrl_site1164] — higher, 7.61
- ACTATAAATATTTATAAACACACAAATATATATATT [CACACA_site7891] — higher, 7.39
